The results in this text go back to article PMC4336329 (PLoS ONE, 2015).

Screen size: about 310,000 compounds; about 14,000 (4.5%) showed an effect of 50% or more. The effect is printed as a negative number. The list shows a part of the results.
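Note: peak tail current of the secondary pulse compared with the same well before compound.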

human ether-à-go-go-related gene (hERG) potassium channel, sequence (Q12809 whole entry, looked up): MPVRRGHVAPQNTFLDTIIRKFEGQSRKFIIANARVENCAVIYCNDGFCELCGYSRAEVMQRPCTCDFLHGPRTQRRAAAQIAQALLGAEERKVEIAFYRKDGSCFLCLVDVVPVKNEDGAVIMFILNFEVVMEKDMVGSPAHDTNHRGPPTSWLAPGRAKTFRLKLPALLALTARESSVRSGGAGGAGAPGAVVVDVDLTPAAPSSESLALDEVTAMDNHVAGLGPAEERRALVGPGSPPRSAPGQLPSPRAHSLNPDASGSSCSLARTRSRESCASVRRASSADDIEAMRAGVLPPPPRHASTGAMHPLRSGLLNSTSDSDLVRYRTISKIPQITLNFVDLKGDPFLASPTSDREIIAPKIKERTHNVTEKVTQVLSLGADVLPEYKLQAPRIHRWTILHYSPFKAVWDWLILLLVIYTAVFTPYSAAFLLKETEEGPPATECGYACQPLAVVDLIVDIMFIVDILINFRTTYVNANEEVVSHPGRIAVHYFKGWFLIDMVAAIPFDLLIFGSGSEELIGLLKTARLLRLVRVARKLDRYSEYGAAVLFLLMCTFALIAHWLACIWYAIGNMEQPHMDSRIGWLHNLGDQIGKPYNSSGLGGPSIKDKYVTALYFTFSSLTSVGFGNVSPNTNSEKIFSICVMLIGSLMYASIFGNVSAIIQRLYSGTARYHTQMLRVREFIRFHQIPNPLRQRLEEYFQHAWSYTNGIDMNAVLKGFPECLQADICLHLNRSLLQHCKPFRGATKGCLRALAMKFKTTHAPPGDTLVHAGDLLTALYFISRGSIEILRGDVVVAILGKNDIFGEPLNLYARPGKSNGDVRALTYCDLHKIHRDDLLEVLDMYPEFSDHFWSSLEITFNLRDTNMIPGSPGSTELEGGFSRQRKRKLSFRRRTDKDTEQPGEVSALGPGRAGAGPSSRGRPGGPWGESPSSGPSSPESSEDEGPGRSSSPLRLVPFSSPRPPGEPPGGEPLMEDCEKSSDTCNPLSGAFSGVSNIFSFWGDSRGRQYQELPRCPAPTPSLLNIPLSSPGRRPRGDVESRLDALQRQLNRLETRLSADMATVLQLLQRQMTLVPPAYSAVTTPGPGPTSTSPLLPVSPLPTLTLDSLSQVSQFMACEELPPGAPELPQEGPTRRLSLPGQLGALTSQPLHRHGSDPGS

The test addresses human ether-à-go-go-related gene (hERG) potassium channel (human, UniProt Q12809). Briefly: primary screen, population patch clamp on CHO cells stably expressing hERG.
For `CCCOC1CCCN(C(=O)CCc2nnc(Cc3cccc(C)c3)o2)C1` (stereo not drawn), the “hERG current change (%, negative = inhibition) at 10uM” value worked out at 4.16%.
To `OCc1ncccc1O` belongs 20%; to `Cc1ccc(NC(=S)N(CCCN2CCCC2)Cc2cccn2Cc2ccc(Cl)cc2)cc1`, -22.9%; to `Cc1ccc(CNC(=O)c2cc3cc(Br)ccc3oc2=N)cc1`, -0.565%.
For the compound `COc1ccc(OC)c(S(=O)(=O)NC2CCCCC2)c1`, the “hERG current change (%, negative = inhibition) at 10uM” value is listed as -11.2%.
In the case of `CCn1nnc(NC(=O)COc2cc(C)ccc2C(C)C)n1`, the “hERG current change (%, negative = inhibition) at 10uM” value is -1.97%.
For `Cc1ccc(Cn2cc(/C=N/Nc3ccc([N+](=O)[O-])cn3)c3ccccc32)cc1` the value was 4.45%; for `CN(c1cccc(Cl)c1)S(=O)(=O)c1cccc(C(=O)Nc2nc3ccccc3[nH]2)c1`, 1.34%.
On to `CCCCc1nnc(NC(=O)c2ccc3[nH]c(=O)c(=O)[nH]c3c2)s1`, for which the “hERG current change (%, negative = inhibition) at 10uM” value was -11.2%.
To `COc1cccc(/C=C2\Oc3cc(OCC(=O)N4CCC[C@H]4C(=O)O)ccc3C2=O)c1` belongs 4.68%; to `COc1ccccc1C/C(N)=N/OC(=O)c1cccc([N+](=O)[O-])c1`, -10.5%; to `Cc1cccc(S(=O)(=O)NCC2CCCO2)c1` (stereo not drawn), 12%.
Turning to `CCCCCn1nc(C(=O)N(CCOC)c2c(N)n(CCCC)c(=O)[nH]c2=O)c2ccccc2c1=O`, the “hERG current change (%, negative = inhibition) at 10uM” value was -3.44%.
As for `CC(C)NC(=O)C(=O)NCCN1CCN(C(=O)c2ccc(C(C)(C)C)cc2)CC1`, the “hERG current change (%, negative = inhibition) at 10uM” value is -3.01%.
As for `O=C(NNC(=O)C1CC1)c1cc(Cl)nc2ccccc12`, the “hERG current change (%, negative = inhibition) at 10uM” value is 2.6%.
On to `O=C(NCc1ccccc1)C1CCC(=O)N(CCCN2CCCC2=O)C1` (stereo not drawn), for which the “hERG current change (%, negative = inhibition) at 10uM” value was 12.3%.
To `Cc1cccc(-c2noc(CCC(=O)NCc3ccccc3)n2)c1` belongs -13.7%; to `Cc1ccc(C(=O)N2CC3(C(C)C)CN(C(=O)c4ccc(C)cc4)CC(C(C)C)(C2)C3=O)cc1`, -4.38%.
With `C=CCNS(=O)(=O)c1ccc(OCC(=O)OC)cc1`, the “hERG current change (%, negative = inhibition) at 10uM” value was 6.2%.
For `CN1CCN(Cc2cn[nH]c2-c2ccc(F)cc2F)[C@@H](c2ccccc2)C1` the value was -18.7%; for `O=C(O)c1ccccc1Nc1ccnc(C(F)(F)F)c1`, 14.5%; for `CCOC(=O)CNS(=O)(=O)c1ccc(C(=O)O)cc1`, 8.42%.
To `O=C(CN1CCN(S(=O)(=O)c2cc(C(F)(F)F)ccc2Cl)CC1)N1CCc2ccccc2C1` belongs -24.7%; to `COc1cccc(-c2csc(N3CCN(CC(=O)Nc4ccc5c(c4)OCO5)CC3)n2)c1`, 2.71%.
For `Cc1[nH]c(=O)[nH]c(=O)c1S(=O)(=O)N1CCCC(C(=O)NCCc2ccc(Cl)cc2)C1` (stereo not drawn) the value was -1.16%.
For the compound `COc1cccc(Oc2ncnc(N)c2[N+](=O)[O-])c1`, the “hERG current change (%, negative = inhibition) at 10uM” value amounted to 14.4%.
For `O=C(NCCN1CCOCC1)/C(=C\c1ccc(Br)cc1)NC(=O)c1cccs1` the value was -67.4%; for `Cc1ccccc1CC(=O)NC1CCN(C)CC1`, 8.62%.
For the compound `Nc1ccc(N2CCN(c3ccccc3)CC2)c(F)c1`, the “hERG current change (%, negative = inhibition) at 10uM” value is listed as 21.7%.
Regarding `O=C(CCc1ccccc1)NNC(=S)NC(=O)c1ccccc1`, the “hERG current change (%, negative = inhibition) at 10uM” value worked out at 3.71%.
For the compound `OC1CCCCC1Sc1nc2ccccc2s1` (stereo not drawn), the “hERG current change (%, negative = inhibition) at 10uM” value is 5.97%.
For `CCN(CC)CCN(CC(=O)N(C1CCCCC1)C1CCCCC1)C(=O)c1ccco1.O=C(O)C(=O)O` the value was 23.2%.
For `COc1cc(C(=O)OCC(=O)Nc2ccc(SC(F)F)cc2)cc(OC)c1OC` the value was -55.7%; for `O=C(Nc1cccc(OC(F)(F)F)c1)c1ccc(Br)o1`, -38.6%.
In the case of `COc1ccc(Cn2nnnc2C(CC(C)C)N2CCN(c3ccccc3)CC2)cc1` (stereo not drawn), the “hERG current change (%, negative = inhibition) at 10uM” value is listed as -4.87%.
On to `COc1ccccc1N(CC(=O)N1CCCC1)S(=O)(=O)c1ccc(C)cc1`, for which the “hERG current change (%, negative = inhibition) at 10uM” value was 5.18%.
To `COc1ccc(Cl)cc1NC(=O)CN(C)C(=O)Cn1c(=O)oc2ccccc21` belongs -15.5%.
Turning to `O=c1c2ccccc2oc2cc(C#CC3(O)CCCCC3)ccc12`, the “hERG current change (%, negative = inhibition) at 10uM” value was 8.35%.
For `Cc1cc(C)cc(-c2nc(-c3ccncc3)no2)c1` the value was 7.71%; for `Cc1ccc(OC(=O)Cn2c(C(F)(F)F)nc3ccccc32)cc1`, 1.11%; for `CC(=O)c1sc(-c2ccccc2Cl)nc1C`, 12.5%.
To `O=C(NCc1ccc(F)cc1)C1CCN(S(=O)(=O)N2CCCCC2)CC1` belongs -10.4%; to `Cl.N[C@@H](CCC(=O)O)C(=O)O`, 9.48%; to `Oc1ccccc1/C=N/N1CCCCC1`, 6.81%.
To `C#CC(C)OC(=O)Nc1cnccc1C(F)(F)F` (stereo not drawn) belongs 11.5%.
